The whole screen tested about 350,000 compounds, of which about 9,900 (2.8%) were called active. The shares of active, inactive and inconclusive entries below differ from those in the screen. Calls follow the shape of the dose curve; as a rule, active = well fitted activation curve with a large enough effect; inconclusive = small, poorly fitted or top-dose-only effect; inactive = no such curve, though single readings can be large or run the other way. Potencies of inconclusive entries are left out as doubtful fits.
Test: A quantitative high throughput screen for small molecules that induce DNA re-replication in MCF 10a normal breast cells. Also: nearly all actives have a fitted effect of over 50% in size.
Details: MCF 10A DNA re-replication, Hoechst nuclear intensity, 48 h; series mostly up to 46.1 µM
Potency is read from the fitted curve at half-maximal effect; tags tell the direction and shape of the fitted curve.

Structure (SMILES) | Potency
COc1ccc(C(=O)NC(=S)Nc2ccccc2N2CCOCC2)cc1[N+](=O)[O-] | inconclusive [activator, full curve]
CCCCOc1ccc(S(=O)(=O)NNC(=O)C2Cc3c(ccc4ccccc34)O2)cc1 (stereo not drawn) | active: 20.6 µM
Cc1cc(C(=O)COC(=O)c2ccc[nH]c2=O)c(C)n1-c1ccccc1 | inactive
COc1ccc(-c2cc(C(=O)NCC3CCCO3)c3cc(C(C)C)ccc3n2)cc1 (stereo not drawn) | inconclusive [activator, partial curve, poor fit]
CCOc1ccccc1C(=O)N1CCOCC1 | inactive
CC1CCCC(C)N1CC(O)COCc1ccccc1F (stereo not drawn) | inconclusive [activator, single point]
COc1cc(/C=C2\SC(N)=NC2=O)cc(Br)c1O | inactive
Cc1ccc2oc(=O)n(CCOc3ccccc3Cl)c2c1 | inconclusive [activator, partial curve, poor fit]
Cc1c2cnn(CC(=O)NCCCN3CC(C)CC(C)C3)c(=O)c2c(C)n1Cc1ccc(Cl)cc1 (stereo not drawn) | inconclusive [activator, partial curve, poor fit]
Cc1cc(C)cc(NC(=O)C[n+]2ccccc2)c1 | inactive
OC(c1ccccc1)(c1ccc(F)cc1)C(c1ccccc1)N1CCOCC1 (stereo not drawn) | inconclusive [activator, single point]
O=C(COc1ccc(Cl)cc1)Nc1ccc(N2CCN(C(=O)c3ccco3)CC2)cc1 | inconclusive [activator, single point]
COc1ccc([C@H]2CC(=O)C=C(c3cccc4c3Oc3ccccc3S4)C2)cc1OC | inconclusive [activator, full curve, poor fit]
O=C(NC1CC1)C1=C[C@H](c2csc3ccccc23)C[C@H](OCc2ccc(CO)cc2)O1 | inconclusive [activator, partial curve, poor fit]
COC(=O)c1cc(OC)c(OC)cc1NC(=O)c1ccc(OC)cc1 | inconclusive [activator, single point]
Cc1c(OCC(=O)NCc2cccnc2)ccc2c3c(c(=O)oc12)CCCC3 | inconclusive [activator, single point]
O=[N+]([O-])c1cccc(C=NNc2ccccc2)c1 | inconclusive [activator, single point]
CC(C)(C)OC(=O)C[C@@H]1C/C=C\C[C@H](CC(=O)NCCO)C(=O)N2CCC[C@H]2COC1=O | inconclusive [activator, single point]
O=C(Cc1c(O)c2ccccc2oc1=O)c1ccc(C(F)(F)F)cc1 | inactive
CCOC(=O)[C@H]1[C@H]2COc3ccc(OC)cc3[C@@H]2N2C(=O)CN(Cc3ccco3)C(=O)[C@@]12C | inconclusive [activator, single point]
Cc1ccc(-c2c[n+]3c(n2-c2ccccc2)CCC3)cc1 | active: 8.2 µM
NC(=O)c1c(/N=C/c2cccs2)sc2c1CCCC2 | inconclusive [activator, full curve, poor fit]

Structure (SMILES) | Potency
CCOc1ccc(NC(=O)C(=O)NCCN2CCN(S(=O)(=O)c3ccccc3)CC2)cc1 | inactive
CC(OC(=O)c1ccc(Br)o1)C(=O)NCC1CCCCC1 (stereo not drawn) | inactive
CCc1ccc2[nH]c(=O)c(CN(CCN(C)C)C(=O)Nc3ccccc3)cc2c1 | inconclusive [activator, partial curve, poor fit]
O=C(Nc1ccncc1)c1c(F)c(F)c(F)c(F)c1F | inconclusive [activator, single point]
O=C(Nc1ccc(N2CCOCC2)cc1)c1cccc(S(=O)(=O)N2CCC(Cc3ccccc3)CC2)c1 | inactive
Cc1ccc(N(C(=O)c2snc(C(N)=O)c2N)C(CC(C)C)C(=O)NC2CCCC2)cc1 (stereo not drawn) | inconclusive [activator, partial curve]
COc1cc(C(=O)NC2CCN(C)CC2)ccc1Nc1ncc2c(n1)N(CCc1ccccc1)CCC(=O)N2C | active: 9.2 µM
O=C(CN1C(=O)C2CCCCC2C1=O)N1CCN(c2ncccn2)CC1 (stereo not drawn) | inconclusive [activator, partial curve, poor fit]
O=C(O)c1ccc(NC2=Nc3cccc4cccc2c34)cc1 | inactive
CCc1ccc(CNC(=O)Cc2ccc(NC(=O)C3=C(C)OCCS3)cc2)cc1 | inconclusive [activator, partial curve, poor fit]
COc1ccc2c(c1)c(=O)c(C(=O)c1ccccc1)cn2Cc1ccc(C)cc1 | inconclusive [activator, partial curve, poor fit]
Cc1noc(NS(=O)(=O)c2ccc(N/C=C\C(=O)c3ccc(Br)cc3)cc2)c1C | inconclusive [activator, single point]
O=C(NC1CCCCCC1)C(=S)NCCc1ccccc1 | inconclusive [activator, single point]
Cc1ccc(/C=C/C(=O)c2c(C)nc3ccccn23)cc1 | inconclusive [activator, partial curve, poor fit]
Cc1[nH]n2c(=O)cc(C(C)C)nc2c1-c1ccccc1 | inconclusive [activator, partial curve, poor fit]
CCn1ccc(C(=O)N2CCN(c3ncccn3)CC2)n1 | inactive
COC(=O)C(CCCN1C(=O)c2ccccc2C1=O)(NC(C)=O)c1nnn(C)n1 (stereo not drawn) | inconclusive [activator, single point]
O=C(CSc1ncnc2scc(-c3ccc(F)cc3)c12)c1ccc2c(c1)OCCO2 | inactive
Cc1ccc(NC2=CC(=O)C(=O)c3ccccc32)cc1 | inconclusive [activator, single point]
CCOCCCNC(=O)c1cc2sc(Cl)cc2n1CC | inconclusive [activator, full curve, poor fit]
O=C(CSCc1cccc(Cl)c1)Nc1ccccc1-c1ccccc1 | inconclusive [activator, single point]
